This list was built around the results that the source calls inconclusive (neither active nor inactive); the mix of calls is not that of the screen. For some of these results: Potencies of inconclusive entries are left out as doubtful fits. The source made the active and inactive calls. Unless noted, the call rests on the fitted dose curve; in most records, active means well fitted curve in the direction sought with a large enough effect in the repeat runs; inconclusive means weak or mixed curves; inactive means no such curve, though single readings can be large; an effect the other way counts as inactive or inconclusive.
What was measured:
[1] = qHTS assay to identify small molecule antagonists of the retinoic acid receptor (RAR) signaling pathway (AID 1159552; further: nearly all actives have a fitted effect of over 50% in size; further: potency means the concentration at half of the fitted maximal effect); conditions: C3RL4 RARE luciferase reporter, retinol-stimulated, 6 h; series mostly up to 92.4 µM
Method in brief: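 Luminescent RARE reporter read-out in C3RL4 cells: 6 hr co-treatment at 37 C of test compounds with retinol at 1 uM final. Cells plated overnight beforehand; luciferase reagent incubated 30 min at room temperature before reading.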

[2] = target: Thyrotropin receptor (Homo sapiens) (UniProt P16473); assay: qHTS assay to identify small molecule agonists of the thyroid stimulating hormone receptor (TSHR) signaling pathway (AID 1224843; calls by dose curve; further: nearly all actives have a fitted effect of over 45% in size; further: potency means the concentration at half of the fitted maximal effect; on activation: on the % scale 0 is the no-effect control and ±100 the full control effect); conditions: TSHR-HEK293 cells, cAMP HTRF, agonist mode, 30 min; activation: at 92.4 µM (top of the series) unless noted
Chain of UniProt P16473 (P16473 whole entry, looked up): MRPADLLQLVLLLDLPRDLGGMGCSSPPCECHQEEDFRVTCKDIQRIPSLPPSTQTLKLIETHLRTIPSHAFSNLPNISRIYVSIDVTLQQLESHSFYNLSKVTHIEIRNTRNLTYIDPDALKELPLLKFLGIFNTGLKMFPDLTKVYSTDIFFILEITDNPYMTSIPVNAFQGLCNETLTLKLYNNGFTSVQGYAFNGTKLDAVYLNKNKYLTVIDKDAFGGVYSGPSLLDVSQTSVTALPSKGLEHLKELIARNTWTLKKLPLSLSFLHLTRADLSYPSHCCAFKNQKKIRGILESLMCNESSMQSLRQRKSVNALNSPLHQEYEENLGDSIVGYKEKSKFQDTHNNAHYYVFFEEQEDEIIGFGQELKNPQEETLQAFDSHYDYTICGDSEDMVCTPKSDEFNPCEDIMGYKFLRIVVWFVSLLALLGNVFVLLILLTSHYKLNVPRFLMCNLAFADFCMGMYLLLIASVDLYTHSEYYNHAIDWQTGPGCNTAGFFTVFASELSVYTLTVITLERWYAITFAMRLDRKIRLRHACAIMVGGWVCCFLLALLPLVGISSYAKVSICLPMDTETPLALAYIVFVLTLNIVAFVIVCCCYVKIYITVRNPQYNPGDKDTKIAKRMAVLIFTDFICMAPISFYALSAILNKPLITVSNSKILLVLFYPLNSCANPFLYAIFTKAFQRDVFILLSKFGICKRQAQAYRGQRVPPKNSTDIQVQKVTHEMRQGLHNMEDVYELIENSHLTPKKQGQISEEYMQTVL
Method in brief: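 HEK293/TSHR, 800 cells/well; cpd 30 min RT; add cAMP-d2 + anti-cAMP-cryptate, 1 h RT; fluorescence read on plate reader. 15-pt titration, n=3.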

[3] = target: Nuclear receptor subfamily 1 group I member 3 (Homo sapiens) (UniProt Q14994); assay: qHTS assay to identify small molecule antagonists of the constitutive androstane receptor (CAR) signaling pathway (AID 1224838); conditions: HepG2-CYP2B6-hCAR luciferase, CITCO-stimulated, 24 h; series mostly up to 92.4 µM;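 further: HepG2 cells stably expressing hCAR with CYP2B6 luciferase reporter stimulated by CITCO; potency means the concentration at half of the fitted maximal effect; nearly all actives have a fitted effect of over 40% in size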
Chain of UniProt Q14994 (Q14994 whole entry, looked up): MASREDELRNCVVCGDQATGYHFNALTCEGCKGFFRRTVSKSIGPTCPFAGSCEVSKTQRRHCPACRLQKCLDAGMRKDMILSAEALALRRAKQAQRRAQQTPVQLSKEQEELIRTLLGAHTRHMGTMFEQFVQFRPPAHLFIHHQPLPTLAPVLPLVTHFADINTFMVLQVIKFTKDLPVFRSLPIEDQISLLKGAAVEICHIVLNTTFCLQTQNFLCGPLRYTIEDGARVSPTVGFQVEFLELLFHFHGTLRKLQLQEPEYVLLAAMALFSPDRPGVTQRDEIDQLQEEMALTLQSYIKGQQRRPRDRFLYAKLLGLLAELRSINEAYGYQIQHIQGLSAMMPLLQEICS
Method in brief: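 Human hepatoma HepG2 cells expressing hCAR and a CYP2B6 promoter (2.2 kb) luciferase construct; compound titration (15 points) with 50 nM CITCO final, 24 h at 37 C/5% CO2; luminescence via ONE-Glo after 30 min at room temperature.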

[4] = qHTS assay to identify small molecule agonists of the retinoic acid receptor (RAR) signaling pathway (AID 1159553); conditions: C3RL4 RARE luciferase reporter, agonist, 6 h; activation: at 73.3 µM (top of the series) unless noted; further: potency means the concentration at half of the fitted maximal effect; on activation: on the % scale 0 is the no-effect control and ±100 the full control effect
Method in brief: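 6 hr compound exposure (DMSO vehicle) of overnight-plated C3RL4 RARE-luc cells at 37 C; luminescence quantified after 30 min RT with luciferase reagent.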

[5] = qHTS assay to identify small molecule agonists of the constitutive androstane receptor (CAR) signaling pathway - cell viability counter screen (AID 1224836); conditions: HepG2-CYP2B6-hCAR viability, CellTiter-Fluor, 23 h, PK11195 added to every well; series mostly up to 92.4 µM; further: nearly all actives have a fitted effect of over 45% in size; further: potency means the concentration at half of the fitted maximal effect
Method in brief: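 Cell viability multiplexed with the CAR agonist screen: CellTiter-Fluor fluorescence after 23 hr at 37 C. HepG2-CYP2B6-hCAR cells got compounds at 15 concentrations with PK11195 at 0.75 uM final.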

[6] = qHTS assay to identify small molecule antagonists of the estrogen related receptor signaling pathway with the pleiotropic PPARgamma coactivator (PGC) from Tox21 10K library - cell viability counter screen (AID 1224840; active means well fitted cell-killing curve with a large enough effect in the repeat runs, not every such curve was filed as active; inconclusive means weak or mixed curves, or effect the other way; inactive means no such curve, though single readings can be large or run the other way; further: nearly all actives have a fitted effect of over 40% in size; further: potency means the concentration at half of the fitted maximal effect); conditions: PGC/ERR reporter cells viability, CellTiter-Fluor, 17.5 h; series mostly up to 92.4 µM
Method in brief: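 Seeded PGC/ERR cells (2,000/well, 6 h, 37 C/5% CO2) get compound by pin tool; 17.5 h incubation at 37 C; CellTiter-Fluor added, 30 min, fluorescence measured.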

[7] = qHTS assay to identify small molecule antagonists of the constitutive androstane receptor (CAR) signaling pathway - cell viability counter screen (AID 1224837); conditions: HepG2-CYP2B6-hCAR viability, CellTiter-Fluor, 23 h, co-treated with 50 nM CITCO; series mostly up to 92.4 µM; further: potency means the concentration at half of the fitted maximal effect; nearly all actives have a fitted effect of over 45% in size
Method in brief: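 To flag cytotoxic false antagonists, HepG2 hCAR/CYP2B6-2.2kb cells were treated 23 hr with 15-concentration compound series and 50 nM CITCO at 37 C/5% CO2; CellTiter-Fluor fluorescence was the measured end point.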

[8] = qHTS assay to identify small molecule antagonists of the estrogen related receptor signaling pathway with the pleiotropic PPARgamma coactivator (PGC) from Tox21 10K library (AID 1224841; call rule not given here; further: potency means the concentration at half of the fitted maximal effect; actives are mostly falling curves and most rising ones were filed inactive; nearly all actives have a fitted effect of over 50% in size); conditions: PGC/ERR reporter cell line, ONE-Glo luciferase, 18 h; series mostly up to 92.4 µM
Method in brief: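 Test chemicals dissolved in DMSO were applied to pre-incubated (6 h) PGC/ERR cells at 2,000 cells/well for an 18 h, 37 C treatment; reporter luminescence was then read using One-Glo.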

[9] = qHTS assay to identify small molecule antagonists of the estrogen related receptor (ERR) signaling pathway from Tox21 library - cell viability counter screen (AID 1224834); conditions: ERR reporter cells viability, CellTiter-Fluor, 17.5 h; series mostly up to 92.4 µM; further: potency means the concentration at half of the fitted maximal effect; nearly all actives have a fitted effect of over 30% in size
Method in brief: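 Seeded ERR cells were rested 6 h at 37 C/5% CO2 before compounds, positive and negative controls or DMSO were added. Incubation continued for 17.5 h, and viability was then quantified by CellTiter-Fluor fluorescence.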

[10] = target: Nuclear receptor subfamily 1 group I member 3 (Homo sapiens) (UniProt Q14994); assay: qHTS assay to identify small molecule agonists of the constitutive androstane receptor (CAR) signaling pathway (AID 1224839); conditions: HepG2 hCAR CYP2B6-luciferase, agonist mode, 24 h; series mostly up to 92.4 µM; further: potency means the concentration at half of the fitted maximal effect; nearly all actives have a fitted effect of over 15% in size
Method in brief: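 Luminescent ONE-Glo read-out after 24 hr, 37 C exposure of double-stable HepG2-CYP2B6-hCAR reporter cells to a 15-point compound series, in the presence of 0.75 uM PK11195 (final).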

[11] = qHTS assay to identify small molecule agonists of the estrogen related receptor signaling pathway with the pleiotropic PPARgamma coactivator (PGC) from Tox21 10K library (AID 1224842); conditions: PGC/ERR reporter cell line, luciferase ONE-Glo, 18 h; series mostly up to 42.5 µM; further: nearly all actives have a fitted effect of over 15% in size; further: potency means the concentration at half of the fitted maximal effect; on activation: on the % scale 0 is the no-effect control and ±100 the full control effect
Method in brief: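 PGC/ERR reporter cell line, 2,000 cells per well, incubated 6 h at 37 C before 23 nL compound in DMSO was added. After 18 h at 37 C, One-Glo luminescence read following 30 min at room temperature.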

[12] = target: Luciferin 4-monooxygenase (Photinus pyralis) (UniProt P08659); assay: qHTS assay to identify small molecule inhibitors of firefly luciferase (AID 1224835); further: on the % scale 0 is the no-effect control and ±100 the full control effect; nearly all actives have a fitted effect of over 25% in size; conditions: purified P. pyralis luciferase, luminescence inhibition; series mostly up to 115 µM
Chain of UniProt P08659 (P08659 whole entry, looked up): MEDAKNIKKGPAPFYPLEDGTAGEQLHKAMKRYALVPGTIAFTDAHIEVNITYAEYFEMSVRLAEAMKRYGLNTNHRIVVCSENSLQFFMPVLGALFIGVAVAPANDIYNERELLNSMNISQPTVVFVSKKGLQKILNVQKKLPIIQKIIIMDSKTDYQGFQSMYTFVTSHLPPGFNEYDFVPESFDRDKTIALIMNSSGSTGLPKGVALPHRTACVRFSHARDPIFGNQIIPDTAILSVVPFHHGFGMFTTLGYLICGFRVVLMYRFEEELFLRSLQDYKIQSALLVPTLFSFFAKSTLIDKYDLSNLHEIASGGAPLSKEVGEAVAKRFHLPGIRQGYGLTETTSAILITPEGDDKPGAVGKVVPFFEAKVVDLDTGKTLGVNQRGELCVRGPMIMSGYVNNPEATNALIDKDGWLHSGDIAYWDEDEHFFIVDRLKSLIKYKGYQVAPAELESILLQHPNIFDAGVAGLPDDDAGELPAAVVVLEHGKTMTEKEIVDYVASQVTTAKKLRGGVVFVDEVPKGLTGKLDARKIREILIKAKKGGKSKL
Method in brief: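 Biochemical qHTS: compounds run as interplate titrations against purified firefly enzyme, with D-luciferin and ATP each at its KM concentration. Light output recorded by CCD imaging.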

[13] = qHTS assay to identify small molecule agonists of the hypoxia (HIF-1) signaling pathway - cell viability counter screen (AID 1224844; calls by dose curve; further: nearly all actives have a fitted effect of over 50% in size; further: potency means the concentration at half of the fitted maximal effect); conditions: HRE-bla ME-180 viability, CellTiter-Glo luminescence, 17 h; series mostly up to 76.8 µM
Method in brief: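 HRE-bla ME-180; 0.5% dFBS; cpd 17 h, 37C, 5% CO2; CellTiter-Glo lum., 30 min RT, post-FRET read, same wells.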
Tags describe the fitted curve by direction and shape or compound fluorescence and quenching.

With `CC1CCCCN1CCCOC(=O)c1ccc(OC2CCCCC2)cc1` (stereo not given) as the compound, how does the Potency [1] read?
The Potency was inconclusive [inhibitor, partial curve, poor fit].

And the Potency [2]?
The Potency was active: 26.6 µM.

With `OC(CCN1CCCC1)(c1ccccc1)C1CCCCC1` (stereo not given) as the compound, how does the Potency [1] read?
The Potency was inconclusive [inhibitor, partial curve, poor fit].

And the Potency [3]?
Its Potency is inconclusive [inhibitor, partial curve].

With `CC=C(Cl)Cl` as the compound, how does the Potency [4] read?
The Potency was “inactive”.

With `O=C(O)C1CCC(C(=O)O)CC1` (stereo not given) as the compound, how does the Potency [1] read?
The Potency was inconclusive [inhibitor, partial curve].

And the Potency [5]?
The Potency was “inactive”.

And the Potency [3]?
Its Potency is inconclusive [inhibitor, partial curve].

And the Potency [6]?
Its Potency is “inactive”.

For `CC1(C)[C@@H](O[C@H]2O[C@H](C(=O)O)[C@@H](O)[C@H](O)[C@H]2O[C@@H]2O[C@H](C(=O)O)[C@@H](O)[C@H](O)[C@H]2O)CC[C@]2(C)[C@H]3C(=O)C=C4[C@@H]5C[C@@](C)(C(=O)O)CC[C@]5(C)CC[C@@]4(C)[C@]3(C)CC[C@@H]12`, which Potency [4] is on record?
Its Potency is “inactive”.

With `CC1(C)S[C@@H]2[C@H](NC(=O)C(c3ccccc3)S(=O)(=O)O)C(=O)N2[C@H]1C(=O)O` (stereo not given in full) as the compound, how does the Potency [4] read?
The Potency was “inactive”.

Which results are given for `CC(C(O)c1ccccc1)N(C)CCOC(c1ccccc1)c1ccccc1` (stereo not given)?
Potency [1]: inconclusive [inhibitor]; Potency [5]: inconclusive [cytotoxic]; Potency [7]: inconclusive [cytotoxic, single point]; Potency [3]: inconclusive [inhibitor, single point]; Potency [6]: inconclusive [cytotoxic, partial curve, poor fit]; Potency [8]: inconclusive [falling, full curve, poor fit]

For `C/C=C(/C(=C/C)c1ccc(O)cc1)c1ccc(O)cc1`, which Potency [1] is on record?
Its Potency is inconclusive [inhibitor].

And the Potency [9]?
The Potency was inconclusive [cytotoxic, single point].

What about the Potency [6] of the same compound?
The Potency was “inactive”.

What does the source list for `CO[C@H]1C=CO[C@@]2(C)Oc3c(C)c(O)c4c(O)c(cc(O)c4c3C2=O)NC(=O)/C(C)=C\C=C/[C@H](C)[C@H](O)[C@@H](C)[C@@H](O)[C@@H](C)[C@H](OC(C)=O)[C@@H]1C`?
Potency [1]: inactive; Potency [5]: active: 61.6 µM; Potency [10]: inconclusive [activator, partial curve]; Potency [6]: inconclusive [cytotoxic, partial curve]; Potency [11]: inactive; activation [2]: inconclusive: 24.4%

For `CC(CC1c2ccccc2CCc2ccccc21)CN(C)C` (stereo not given), which Potency [1] is on record?
The Potency was inconclusive [inhibitor, partial curve].

And the Potency [12]?
The Potency was “inactive”.

What about the Potency [5] of the same compound?
The Potency was inconclusive [cytotoxic, single point].

What about the Potency [13] of the same compound?
The Potency was active: 10.7 µM.

Which Potency [1] does the source give for `CN1CCCC(n2nc(Cc3ccc(Cl)cc3)c3ccccc3c2=O)CC1` (stereo not given) here?
The Potency was inconclusive [inhibitor, single point].

And the Potency [5]?
Its Potency is active: 23.7 µM.

What about the Potency [3] of the same compound?
The Potency was inconclusive [inhibitor, partial curve, poor fit].

And the Potency [6]?
The Potency was “inactive”.

For `CC(C)CC(C)O` (stereo not given), which Potency [4] is on record?
The Potency was inconclusive [activator, partial curve, poor fit].

What does the source list for `C=CCN1CCc2nc(N)sc2CC1`?
Potency [1]: inactive; Potency [6]: inactive

For `C=C(C)C(=O)OCCCCCCCCCCCCC`, which Potency [4] is on record?
Its Potency is “inactive”.

Which Potency [1] does the source give for `COC(=O)CCCC(=O)OC` here?
The Potency was inconclusive [inhibitor, single point].

What about the Potency [13] of the same compound?
The Potency was “inactive”.

For `CCN(Cc1c(F)cccc1Cl)c1c([N+](=O)[O-])cc(C(F)(F)F)cc1[N+](=O)[O-]`, which Potency [1] is on record?
Its Potency is inconclusive [inhibitor, partial curve, poor fit].

And the Potency [5]?
The Potency was “inactive”.

What about the Potency [10] of the same compound?
Its Potency is active: 7.7 µM.

And the Potency [8]?
Its Potency is inconclusive [falling, single point].

What about the Potency [13] of the same compound?
The Potency was active: 21.9 µM.

For `Cc1nc(Nc2ncc(C(=O)Nc3c(C)cccc3Cl)s2)cc(N2CCN(CCO)CC2)n1`, which Potency [1] is on record?
Its Potency is active: 16.8 µM.

And the Potency [5]?
Its Potency is active: 7.5 µM.

And the Potency [7]?
The Potency was inconclusive [cytotoxic, full curve].

And the Potency [6]?
Its Potency is inconclusive [cytotoxic, partial curve].

What about the Potency [11] of the same compound?
Its Potency is active: 0.0944 µM.

For `CC/C=C1/OC(=O)c2ccccc21`, which Potency [4] is on record?
The Potency was inconclusive [activator, partial curve, poor fit].

With `O=C(Nc1ccc(S(=O)(=O)N2CCOCC2)cc1)c1cc(Cl)ccc1NS(=O)(=O)c1ccc(Cl)s1` as the compound, how does the Potency [1] read?
Its Potency is inconclusive [inhibitor, single point].

What about the Potency [13] of the same compound?
The Potency was “inactive”.

What does the source list for `CC(=O)Oc1ccc2c(c1)CC[C@@H]1[C@@H]2CC[C@]2(C)[C@@H](O)CC[C@@H]12`?
Potency [1]: inconclusive [inhibitor, full curve]; Potency [9]: inconclusive [cytotoxic]
